Assay results as given in PubChem BioAssay AID1508642 (National Center for Advancing Translational Sciences (NCATS), 2021).
In all, about 43,000 compounds went through this assay and about 200 (0.47%) were called active. Not shown: some 12% with an inconclusive outcome. Calls follow the shape of the dose curve; as a rule, active = well fitted cell-killing curve with a large enough effect; inconclusive = small, poorly fitted or top-dose-only effect, or effect the other way; inactive = flat fitted curve, though single readings scatter. The list shows a part of the results.

Assay: Cell viability qHTS assay in S16 Pmp22-F2sN cells; also: nearly all actives have a fitted effect of over 65% in size
Conditions: S16 Pmp22-F2sN Schwann cells (luciferase reporters placed in the Pmp22 gene) viability, CellTiter-Glo, 24 h; series mostly up to 57.5 µM; activity change, negative = cytotoxicity: at the top concentration
Outline: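 Luminescence from CellTiter-Glo, read by CCD camera after a 15 min room-temperature incubation, served as the viability signal. Reporter Schwann cells (S16 Pmp22-F2sN) had been treated with pin-transferred compounds for 24 h at 37C.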
% is scaled to controls: 0 for no effect and ±100 for the full control effect.

Structure (SMILES) | activity change, negative = cytotoxicity
CCOc1ccccc1NC(=O)Cn1c(=O)n(-c2ccc(C)c(C)c2)c(=O)c2c(C)c(C(=O)N(C)C)sc21 | inactive: -5.76%
COc1ccc(-n2c(=O)c3c4c(sc3n(Cc3c(F)cccc3Cl)c2=O)CN(C(C)=O)CC4)cc1OC | inactive: -0.275%
O=C(Nc1ccc(F)cc1)c1ncn(-c2ccccc2)n1 | inactive: -18%
COC(=O)c1sc2cccc(F)c2c1S(=O)(=O)NCc1ccc(F)cc1 | inactive: 6.05%
COc1ccc(C2CC(=O)N(Cc3cccc(C)c3)c3c2c(C)nn3-c2nc(C)cc(C)n2)c(OC)c1 (configuration not stated) | inactive: -25.9%
CCOC(=O)c1cnc2c(Cl)c(Cl)ccc2c1Nc1ccc(N(C)C)cc1 | inactive: 16.8%
CCCCSCCCNC(=O)c1cn(CC)c2ccc(S(=O)(=O)N(C)C3CCCCC3)cc2c1=O | inactive: 2.51%
COc1cccc(-c2nc(SCC(=O)NCc3ccccc3)c3c(=O)n(C)c(=O)n(C)c3n2)c1 | inactive: -2.13%
Cc1ccc(CCNC(=O)CCS(=O)(=O)c2ccc3c(c2)oc(=O)n3C)cc1 | inactive: 2.41%
O=C(Cn1ccc2cc(S(=O)(=O)N3CCCCCC3)ccc21)NCCc1ccccc1Cl | inactive: -8.55%
COc1cccc(N2CCN(S(=O)(=O)c3ccc(-c4cc(C(F)(F)F)on4)s3)CC2)c1 | inactive: -2.56%
Cc1ccc(-c2noc(CN(C(=O)c3ccc(C(C)(C)C)cc3)C(C)C)n2)cc1 | inactive: -7.3%
COc1cccc(NC(=O)Cn2c(=O)c3cccn3c3ccc(F)cc32)c1 | inactive: 4.14%
O=S(=O)(c1ccccc1)n1nc(-c2ccc(Cl)cc2)nc1NCc1ccc(F)cc1 | inactive: -1.17%
Cc1cc(C)c(NC(=O)CN(c2ccccc2)S(=O)(=O)N(C)C)c(C)c1 | inactive: 11.7%
Cc1oc2ncn(CC(C)C)c(=O)c2c1C(=O)N1CCN(c2ccccc2F)CC1 | inactive: -2.3%
CCc1ccc(NC(=O)C2(c3cccs3)CCOCC2)cc1 | inactive: 19.6%
Clc1ccc(-c2nnn3c2nc(N2CCCCC2)c2ccccc23)cc1 | inactive: 13.2%
Cc1ccccc1NC(=O)c1cc2ccccc2o1 | inactive: -5.74%
O=c1n(Cc2ccc([N+](=O)[O-])cc2)c2ccccc2c2nc(-c3ccccc3)nn12 | inactive: 3.83%
Cc1ccc(NC(=O)N(Cc2c[nH]c3ccccc23)C2CCCCCC2)cc1C | inactive: -14.1%

Structure (SMILES) | activity change, negative = cytotoxicity
O=C(CS(=O)(=O)c1ccc(Cl)cc1)Nc1nc2ccc(Br)cc2s1 | inactive: -2.55%
COc1ccc(CCNC(=O)CCN2N=C(c3ccccc3)CCC2=O)cc1OC | inactive: 6.33%
Cc1c(NC(=O)Nc2ccccc2C(F)(F)F)c(=O)n(-c2ccccc2)n1C | inactive: 2.5%
Cn1c(=O)n(C)c2cc(CNCc3ccc(F)cc3)ccc21 | inactive: 1.59%
Cc1ccc(C(=O)N2CCc3cc(CNC(=O)c4ccccc4F)ccc32)cc1 | inactive: -10.5%
CCOc1ccc(NC(=O)c2cccc3c(=O)c4c([nH]c23)CCCC4)cc1 | inactive: 0.942%
Cc1ccc(Cn2cnc3nc4c(cc3c2=O)CCCC4)cc1 | inactive: 0.0731%
Cc1cc(C)cc(-n2c(SCC(=O)Nc3ccccc3F)nc3c(oc4ccccc43)c2=O)c1 | inactive: 4.76%
CC(C)OCCCNC(=O)Cn1c(-c2cccs2)cc2cc(F)ccc21 | inactive: 11.5%
COc1ccc(N2CCN(CCCNC(=O)c3sc4ncccc4c3-n3cccc3)CC2)cc1 | inactive: -5.03%
COc1cc2nc(NCCc3ccc(Cl)cc3)n3nc(-c4ccccc4)nc3c2cc1OC | inactive: 0.866%
CCOc1cc(C(=O)N2CC(=O)Nc3ccc(F)cc3C2c2ccccc2)cc(OCC)c1OCC (configuration not stated) | inactive: -5.88%
CCOc1cc(-c2cc(C(=O)O)c3c(-c4ccccc4)[nH]nc3n2)ccc1O | inactive: -1.31%
COc1ccc(NC(=O)Cn2nc(C)c3c(C)n(-c4ccccc4)nc3c2=O)cc1OC | inactive: -3.06%
CCN(C(=O)c1nn(C)c2c1CSc1ccccc1-2)c1cccc(C)c1 | inactive: 1.34%
O=C(CCSCc1ccccc1Cl)NCCc1ccccc1 | inactive: 0.286%
Cc1c(-c2cccc(NC(=O)Cc3ccccc3)c2)nc2ncccn12 | inactive: 5.36%
O=C(Cn1ccn(-c2ccc(F)c(F)c2)c(=O)c1=O)NCc1ccccc1 | inactive: -0.127%
CCCn1cc(S(=O)(=O)c2ccc(OCC)cc2)c(=O)c2cc(C)ccc21 | inactive: 7.26%
CCOc1ccc(-c2c(C)nn3c(C)c(C(=O)NC(C)c4ccccc4)cnc23)cc1OCC (configuration not stated) | inactive: -1.91%
CN(Cc1ccccc1)C(=O)c1c[nH]c2ccc(S(=O)(=O)Nc3ccccc3F)cc2c1=O | inactive: 9.92%

Structure (SMILES) | activity change, negative = cytotoxicity
Cc1cc(C)c(NC(=O)c2cc(S(=O)(=O)N3CCCC3)cn2C)c(C)c1 | inactive: -2.56%
Cc1ccc(OCCSc2nc3ccccc3n2CC(=O)N2CCOCC2)cc1C | inactive: 8.02%
COc1cc(Cl)c(S(=O)(=O)N2CCN(c3c(C)cccc3C)CC2)cc1Cl | inactive: 8.23%
COc1ccc(CNc2nc(-c3ccccc3)nn2C(=O)c2ccccc2OC)cc1 | inactive: -8.99%
COC1(C(F)(F)F)NC(=O)N(c2ccc(F)cc2)C1=O (configuration not stated) | inactive: -0.53%
CSc1ncc2c(n1)-c1ccccc1N(Cc1ccccc1C)S2(=O)=O | inactive: 3.69%
COc1ccc(-n2c(=O)c3c(c4cc(OC)ccc4n3C)n(Cc3c(F)cccc3Cl)c2=O)cc1 | inactive: -2.12%
COc1cccc(CCNC(=O)c2cnc3sc(N4CCCC4)nn3c2=O)c1 | inactive: 5.17%
Cc1cccc(-n2c3nc(=O)n(C)c(=O)c-3cc3c(C)nn(-c4ccccc4)c32)c1C | inactive: 10.8%
CC1CCc2c(sc3nnn(CC(=O)Nc4ccccc4Cl)c(=O)c23)C1 (configuration not stated) | inactive: 2.04%
COc1ccc(Cl)cc1NC(=O)N1CCC2(CC1)Oc1ccccc1C(=O)N2Cc1ccc(F)cc1 | inactive: 3.28%
CCOC(=O)c1cnn(-c2cccc(Cl)c2)c1C1CCN(C(=O)OC(C)(C)C)CC1 | inactive: -22.2%
Cc1ccc(OCCSc2nc3ccc(NC(=O)COc4ccc(C)cc4)cc3s2)cc1 | inactive: 16.6%
CCOC(=O)C1=C(CN(CC)Cc2ccccc2)NC(=O)NC1c1ccc(Cl)cc1 (configuration not stated) | inactive: -15.6%
COc1ccc(NC(=O)N2CCC(n3c(C)nc4cccnc43)CC2)cc1OC | inactive: 1.31%
Cc1cccc(COc2ccc(-c3cc(C(F)(F)F)n4nc(C)cc4n3)cc2)c1 | inactive: -2.34%
Cc1ccc(Nc2c3c(nc4ccccc24)CCC3)cc1F | inactive: -14.6%
Cc1ccc(CNC(=O)CCN2C(=O)C(C)Oc3ccc(C)cc32)cc1 (configuration not stated) | inactive: 14.7%
CCc1ccc(-c2nc3cc(NC(=O)c4ccc(F)cc4)ccc3o2)cc1 | inactive: 20.9%
CCCCNC(=O)c1ccc(-c2nc(CN3CCc4ccccc43)c(C)o2)cc1 | inactive: 6.2%
